These are yes or no findings as the source states them, for the method shown. Binding seen in cells or lysates may run through a third protein. Some binding calls cover weakened binding; strength is not graded here. For some of these results: Where a sequence is shown, tags or fusion partners need not be part of it.

By UniProt entry, the sequences of proteins in these tests, tags left out. Residues count along the entry.
UniProt P01731, residues 28-247: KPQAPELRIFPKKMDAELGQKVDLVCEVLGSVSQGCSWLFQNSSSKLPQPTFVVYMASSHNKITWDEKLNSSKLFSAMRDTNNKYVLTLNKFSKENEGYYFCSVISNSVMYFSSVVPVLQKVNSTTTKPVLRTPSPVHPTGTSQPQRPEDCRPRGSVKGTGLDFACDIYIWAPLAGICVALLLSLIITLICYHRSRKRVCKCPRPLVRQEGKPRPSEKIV
UniProt P18537, residues 19-581: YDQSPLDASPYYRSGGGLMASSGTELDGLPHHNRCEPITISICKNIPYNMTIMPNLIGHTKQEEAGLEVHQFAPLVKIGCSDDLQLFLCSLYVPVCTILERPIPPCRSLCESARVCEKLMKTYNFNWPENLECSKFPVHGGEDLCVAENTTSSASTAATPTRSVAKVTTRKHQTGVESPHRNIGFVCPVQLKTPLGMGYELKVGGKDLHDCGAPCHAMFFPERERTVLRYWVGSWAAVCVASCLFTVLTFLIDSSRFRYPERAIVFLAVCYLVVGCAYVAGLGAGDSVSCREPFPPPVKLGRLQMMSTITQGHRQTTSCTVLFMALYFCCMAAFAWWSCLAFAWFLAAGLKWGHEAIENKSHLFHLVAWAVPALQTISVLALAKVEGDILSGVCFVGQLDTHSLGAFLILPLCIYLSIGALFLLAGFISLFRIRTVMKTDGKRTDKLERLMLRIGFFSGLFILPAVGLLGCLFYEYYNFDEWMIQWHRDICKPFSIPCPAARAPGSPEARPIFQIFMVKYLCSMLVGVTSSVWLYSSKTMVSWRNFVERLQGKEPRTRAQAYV

We go through 7 molecules from publication PMC6262871.

T1: GFP-tagged Ror (Drosophila) (UniProt Q24488)
T1 sequence: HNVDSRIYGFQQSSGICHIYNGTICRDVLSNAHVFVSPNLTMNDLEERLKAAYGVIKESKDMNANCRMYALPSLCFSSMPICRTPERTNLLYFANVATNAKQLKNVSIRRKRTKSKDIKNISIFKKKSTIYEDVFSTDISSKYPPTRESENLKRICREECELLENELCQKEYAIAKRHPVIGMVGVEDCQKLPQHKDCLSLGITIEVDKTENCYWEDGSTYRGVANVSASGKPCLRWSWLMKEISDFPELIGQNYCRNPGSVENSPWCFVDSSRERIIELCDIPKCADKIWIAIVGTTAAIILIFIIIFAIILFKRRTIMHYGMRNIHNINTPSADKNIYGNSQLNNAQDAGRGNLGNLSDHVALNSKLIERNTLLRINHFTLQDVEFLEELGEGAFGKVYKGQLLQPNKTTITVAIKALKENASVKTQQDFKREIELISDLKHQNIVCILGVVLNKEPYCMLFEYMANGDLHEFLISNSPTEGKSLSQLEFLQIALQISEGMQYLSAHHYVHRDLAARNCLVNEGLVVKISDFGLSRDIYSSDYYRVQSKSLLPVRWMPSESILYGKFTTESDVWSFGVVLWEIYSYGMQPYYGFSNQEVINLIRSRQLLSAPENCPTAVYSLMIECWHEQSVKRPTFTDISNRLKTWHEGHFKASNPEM

B1: Myc-tagged Otk (receptor, UniProt Q6AWJ9 23-1033)
chain: SSSRFQRVPQSQSVVENESVKFECESTDSYSELHYDWLHNGHRIAYDKRVHQIGSNLHIEAVRRTEDVGNYVCIATNLASGAREASPPAKLSVIYLESASVQLLGSNRNELLLKCHVEGASGDLEPLEIEWYRNSEKLSTWKNVQLDQHRLIIRQPGSEDDGLYRCTASNAAGRVMSKQGYVYQSSVKCLPRLPRRKNEKMMESWDKQTFLCRGKRGGAAGLEALPAAPEDLRIVQGPIGQSIIKEGEPTALTCLYELPDELKNQRIQLRWRKDGKLLRQVELGGSAPIPGHSFDSGKDALLREDARLVLHKQNGTLSFASIIASDAGQYQCQLQLEAHAPINSSPGILEVIEQLKFVPQPTSKNLELDAVVAKVHCKAQGTPTPQVQWVRDGENTTLPDHVEVDANGTLIFRNVNSEHRGNYTCLATNSQGQINATVAINVVVTPKFSVPPVGPIETSEQGTVVMHCQAIGDPKPTIQWDKDLKYLSENNTDRERFRFLENGTLEIRNVQVEDEGSYGCTIGNSAGLKREDVQLVVKTTGDGFAPEESGGDGFLVTRAVLITMTVALAYIVLVVGLMLWCRYRRQARKARLNDLSTKEAGGDQPDVAGNGKGSEQEPCLSKQHNGHSKSRSKSSGDAQKSDDTACSQQSRASKKSAHIYEQLALPRSGLSELIQIGRGEFGDVFVGKLKATLVTSPSDKDADTEKQHSNSENGSGGSGSGSTTLSTLNEKRRSKTSMDDIEEIKEEEQDQHNQSGLEQLVLVKALNKVKDEQACQEFRRQLDLLRAISHKGVVRLFGLCREKDPHYMVLEYTDWGDLKQFLLATAGKVNTATAGSSSPPPLTTSQVLAVAYQIARGMDAIYRARFTHRDLATRNCVISSEFIVKVSYPALCKDKYSREYHKHRNTLLPIRWLAPECIQEDEYTTKSDIFAYGVVVWELFNQATKLPHEELTNEQVVQRSQAGSLEWSVAEATPDSLREILLSCWVSNPKERPSFSQLGAALSKAMQSAEK
B2: Myc-tagged Fz2 (receptor, UniProt Q9VVX3 23-694)
chain: DGPLHSADHGMGGMGMGGHGLDASPAPGYGVPVIPKDPNLRCEEITIPMCRGIGYNMTSFPNEMNHETQDEAGLEVHQFWPLVEIKCSPDLKFFLCSMYTPICLEDYHKPLPVCRSVCERARSGCAPIMQQYSFEWPERMACEHLPLHGDPDNLCMEQPSYTEAGSGGSSGGSGGSGSGSGSGGKRKQGGSGSGGSGAGGSSGSTSTKPCRGRNSKNCQNPQGEKASGKECSCSCRSPLIFLGKEQLLQQQSQMPMMHHPHHWYMNLTVQRIAGVPNCGIPCKGPFFSNDEKDFAGLWIALWSGLCFCSTLMTLTTFIIDTERFKYPERPIVFLSACYFMVAVGYLSRNFLQNEEIACDGLLLRESSTGPHSCTLVFLLTYFFGMASSIWWVILSFTWFLAAGLKWGNEAITKHSQYFHLAAWLIPTVQSVAVLLLSAVDGDPILGICYVGNLNPDHLKTFVLAPLFVYLVIGTTFLMAGFVSLFRIRSVIKQQGGVGAGVKADKLEKLMIRIGIFSVLYTVPATIVIGCYLYEAAYFEDWIKALACPCAQVKGPGKKPLYSVLMLKYFMALAVGITSGVWIWSGKTLESWRRFWRRLLGAPDRTGANQALIKQRPPIPHPYAGSGMGMPVGSAAGSLLATPYTQAGGASVASTSHHHLHHHVLKQPAASHV
B3: Myc-tagged Wg (ligand, UniProt P09615 18-468)
chain: GSSLSQVEGKQKSGRGRGSMWWGIAKVGEPNNITPIMYMDPAIHSTLRRKQRRLVRDNPGVLGALVKGANLAISECQHQFRNRRWNCSTRNFSRGKNLFGKIVDRGCRETSFIYAITSAAVTHSIARACSEGTIESCTCDYSHQSRSPQANHQAGSVAGVRDWEWGGCSDNIGFGFKFSREFVDTGERGRNLREKMNLHNNEAGRAHVQAEMRQECKCHGMSGSCTVKTCWMRLANFRVIGDNLKARFDGATRVQVTNSLRATNALAPVSPNAAGSNSVGSNGLIIPQSGLVYGEEEERMLNDHMPDILLENSHPISKIHHPNMPSPNSLPQAGQRGGRNGRRQGRKHNRYHFQLNPHNPEHKPPGSKDLVYLEPSPSFCEKNLRQGILGTHGRQCNETSLGVDGCGLMCCGRGYRRDEVVVVERCACTFHWCCEVKCKLCRTKKVIYTCL
B4: Myc-tagged Wnt4 (ligand, UniProt P40589 22-539)
chain: QVRNEDQLLMVGQNGDLDSSNPAIHHQQHQQHQQHQQHQQHQSNHNLNNGNMNSTILNTLMGNNAGQVVNSSPGGGGSMINQLGSSTSSVPSVIGGGVGSVGNPWHSAVGLGVPGNGMGLPSSHGLGGNMGSHPHGHALAGLAKLGIIVPGGQGLPGNLGYGGTMLNGGGVGGAAGMGLGIGSNTNNMDMQQGLYNEHFISEHTVMAVFTSQGQVGGPCRYMPATRRQNHQCRKETGLPGTLSEARRLATTHCEEQFRYDRWNCSIETRGKRNIFKKLYKETAFVHALTAAAMTHSIARACAEGRMTKCSCGPKKHNREAQDFQWGGCNDNLKHGKRVTRSFLDLRGGDGDEVSEILRHDSEVGIEAVSSQMMDKCKCHGVSGSCSMKTCWKKMADFNATATLLRQKYNEAIRKAPNQRSMRQVSSSRMKKPKQRRKKPQQSQYTTLYYLETSPSYCAVTKDRQCLHPDNCGTLCCGRGYTTQVVKQVEKCRCRFNNGRCCQLICDYCQRLENKYFCK
B5: Myc-tagged Wnt5 (ligand, UniProt P28466 30-1004)
chain: TVGLQGVPTWIYLGLKSPFIEFGNQVEQLANSSIPLNMTKDEQANMHQEGLRKLGTFIKPVDLRDSETGFVKADLTKRLVFDRPNNITSRPIHPIQEEMDQKQIILLDEDTDENGLPASLTDEDRKFIVPMALKNISPDPRWAATTPSPSALQPNAKAISTIVPSPLAQVEGDPTSNIDDLKKHILFLHNMTKTNSNFESKFVKFPSLQKDKAKTSGAGGSPPNPKRPQRPIHQYSAPIAPPTPKVPAPDGGGVGGAAYNPGEQPIGGYYQNEELANNQSLLKPTDTDSHPAAGGSSHGQKNPSEPQVILLNETLSTETSIEADRSPSINQPKAGSPARTTKRPPCLRNPESPKCIRQRRREEQQRQRERDEWFRGQSQYMQPRFEPIIQTINNTKRFAVSIEIPDSFKVSSEGSDGELLSRVERSQPSISSSSSSSSSSSRKIMPDYIKVSMENNTSVTDYFKHDVVMTSADVASDREFLIKNMEEHGGAGSANSHHNDTTPTADAYSETIDLNPNNCYSAIGLSNSQKKQCVKHTSVMPAISRGARAAIQECQFQFKNRRWNCSTTNDETVFGPMTSLAAPEMAFIHALAAATVTSFIARACRDGQLASCSCSRGSRPKQLHDDWKWGGCGDNLEFAYKFATDFIDSREKETNRETRGVKRKREEINKNRMHSDDTNAFNIGIKRNKNVDAKNDTSLVVRNVRKSTEAENSHILNENFDQHLLELEQRITKEILTSKIDEEEMIKLQEKIKQEIVNTKFFKGEQQPRKKKRKNQRAAADAPAYPRNGIKESYKDGGILPRSTATVKARSLMNLHNNEAGRRAVIKKARITCKCHGVSGSCSLITCWQQLSSIREIGDYLREKYEGATKVKINKRGRLQIKDLQFKVPTAHDLIYLDESPDWCRNSYALHWPGTHGRVCHKNSSGLESCAILCCGRGYNTKNIIVNERCNCKFHWCCQVKCEVCTKVLEEHTCK
B6: Myc-tagged Wnt2 (ligand, UniProt P28465 24-352)
chain: FTSVMLCGRIPGLTPGQRNMCREMPDALIALGEGHQLGAQECQHQFRGHRWNCSEVWQRNVFAHVIPTASREAAYTYAIASAGAAYAVTAACARGNISTCGCDVRHKATPTGGGTPDEPWKWGGCSADVDFGMRYARRFMDARELERDSRTLMNLHNNRAGRTLVKKMLRTDCKCHGVSGSCVMKTCWKSLPPFRLVGDRLMLKYQKAKTVQAVKGKRGLRLVLSRKKHAGTARAQKPVLDWPKRMELIYLEASPNYCERSLQTGSQGTSGRTCQRTGHGPQSCDLLCCGRGHNTQHIRRTTQCRCQFRWCCEVKCDECDESYEEFTCK

The target in the first test is T1, GFP-tagged Ror (Drosophila). Put plainly: co-IP; GFP- and Myc-tagged proteins co-transfected in Drosophila S2R+ cells; lysis in 50 mM Tris-Cl pH 7.5, 150 mM NaCl, 1% Triton X-100; IP with mouse anti-GFP and Protein G Sepharose at 4°C; western blot with anti-Myc and anti-GFP. On the technique in general: A western blot detects proteins with antibodies after separation by electrophoresis.
On to B1, for which the binding result is on record as “binds”.
Same read-out and setting: the entry for B2 is “binds”; for B3 it is “binds”; for B4 it is “binds”.
As to B5, the binding result is “binds”.

The next test addresses mCD8-GFP (UniProt P01731). The description is as above.
Regarding B6, the binding result was “no binding”.
Same read-out and setting: the entry for B3 is “no binding”; for B4 it is “no binding”; for B5 it is “no binding”.

The target in a further test is mCD8-GFP (UniProt P01731). Described as above. The source holds these as a separate data set.
For “Myc-tagged Fz (from UniProt P18537 19-581) (receptor)”, the binding result is on record as “no binding”.
